# Test results taken from PubChem BioAssay (NCATS).
# Inconclusive means that the source gave no clear call. Such entries were picked first, then a sample of the others. No potency is given beside an inconclusive call; the fits are too rough. Active and inactive are the calls of the source. Calls come from the whole dose curve; as a rule, active = well fitted cell-killing curve with a large enough effect; inconclusive = small, poorly fitted or top-dose-only effect; inactive = no such curve, though single readings can be large or run the other way.
# Test: qHTS of pediatric cancer cell lines to identify multiple opportunities for drug repurposing: Primary screen for SK-N-SH cells (AID 1347098); note: nearly all actives have a fitted effect of over 65% in size
# Conditions: SK-N-SH viability, CellTiter-Glo luminescence, 48 h; series mostly up to 57 µM; activity change, negative = cytotoxic: at the top concentration
# Source text: Drug repurposing or repositioning has been offered as a strategy for drug development in oncology programs. This approach has special potential for childhood cancers and other rare or orphan diseases, where the expected return on new drug development has been a disincentive to pharmaceuticals.
# In this project we exploit the poly-pharmacology of drugs to discover new indications via phenotypic screening of a panel of 19 well-characterized cell lines derived from solid tumors seen in children and adolescents. The goal is to identify approved drugs with previously unrecognized anticancer properties that has the potential to reveal new mechanisms and biological processes involved in carcinogenesis or drug resistance. We employed a titration-based paradigm (quantitative high-throughput screening or qHTS), where all compounds were tested at multiple concentrations for their effect on cell viability. Concentration-response curves (CRCs) were derived directly from the primary screen, and both potency and efficacy values were used to identify compounds with robust bioactivity profiles. We screened the NIH Chemical Genomics Center (NCGC) Pharmaceutical Collection (NPC) and Mechanism Interrogation Plate (MIPE) small molecule collections of approved and investigational compounds against these cell lines; and measured metabolically active cells after 48 hours of compound treatment as a proxy for cell viability.
# Assay Submitter: Nathalia J. Martinez, National Center for Advancing Translational Sciences, National Institutes of Health, Rockville, MD, USA; email: natalia.martinez@nih.gov
# [1] Shen, M et al. Quantitative high-throughput phenotypic screening of pediatric cancer cell lines identifies multiple opportunities for drug repurposing. Oncotarget 2017 Dec 19;9(4):4758-4772. PMID 29435139.
# The cells were obtained from University of North Carolina (UNC), Pediatric Preclinical Testing Program (PPT), and Coriell Institute (CI).
# qHTS cell viability assay:
# Cells were assayed in growth media at a density of 500-1,000 cells/well. Five microliters of cells were dispensed into 1,536-well, white, solid-bottom, TC-treated plates (Greiner Bio One) using a multidrop dispenser and incubated at 37 degrees C, 5% CO2, under a humidified atmosphere for 5 hours. Twenty-three nanoliters of compounds and controls (neutral control DMSO or positive control bortezomib at final concentration of 2.3 µM) were subsequently transferred by Kalypsys pintool. For primary screens, the MIPE collection was tested at 11-point dilutions (final concentrations range from 0.78 nM to 46 µM) and the NPC collection at 8-point dilutions (final concentrations range from 0.59 nM to 46 µM). Compounds tested in follow-up screens were assayed at 11-point dilutions. Cells were incubated for 48 hours, followed by addition of 3 µL of CellTiter-Glo (Promega). After a 15 min incubation at room temperature, samples were analyzed for luminescence intensity using a ViewLux High-throughput CCD imager equipped with clear filters.
# % is set by controls: 0 for no effect and ±100 for the full control effect; potency is the fitted concentration of half-maximal effect; tags give direction and shape of the fitted curve.
SMILES,Potency,"activity change, negative = cytotoxic"
O=C(O)c1ccccn1,"inconclusive [cytotoxic, full curve, poor fit]",
O=C(OCCOCCO)c1ccccc1Nc1cccc(C(F)(F)F)c1,"inconclusive [cytotoxic, partial curve, poor fit]",
Oc1ccccc1,,inactive: 1.28%
NC(=O)NNc1ccccc1,,inactive: 1.34%
CCOC(=O)[C@H](CCc1ccccc1)N[C@@H](C)C(=O)N1C(=O)N(C)C[C@H]1C(=O)O,,inactive: -8.56%
CNC(=O)CN1CCC(Oc2cc3c(Nc4cccc(Cl)c4F)ncnc3cc2OC)CC1,active: 0.0607 µM,
CCOc1ncc(F)c(=O)[nH]1,,inactive: -15.2%
CC1(COc2ccc(CC3SC(=O)NC3=O)cc2)CCCCC1 (stereo not given),"inconclusive [cytotoxic, full curve]",
CC(C)(C)NCC(O)COc1cccc2c1CCC(=O)N2 (stereo not given),,inactive: 5.8%
O=C1NCC2(CCN(CCc3ccccc3)CC2)O1,,inactive: -13%
O=C(O)CO.[NH2-].[NH2-].[Pt+2],,inactive: 11.6%
CN1CCN(C2=Nc3ccccc3Sc3ccc(Cl)cc32)CC1,,inactive: -15.3%
CN(C)CCCN1c2ccccc2Sc2ccc(C(F)(F)F)cc21,"inconclusive [cytotoxic, single point]",
CCC1(c2cnc[nH]2)Cc2ccccc2C1,,inactive: -4.95%
N[C@H](C(=O)O)[C@@H](O)c1ccc(O)c(O)c1,"inconclusive [cytotoxic, partial curve, poor fit]",
O=S(=O)(O)c1cc(I)c(O)c2ncccc12,,inactive: 0.746%
Cc1ccc(C(=O)C(=O)O)cc1C,,inactive: -7.17%
O=C(NCC(O)CO)c1c(I)c(C(=O)NCC(O)CO)c(I)c(N(CCO)C(=O)CO)c1I (stereo not given),,inactive: -9.25%
CC(=O)OC[C@H]1O[C@@](COC(C)=O)(O[C@H]2O[C@H](COC(C)=O)[C@@H](OC(C)=O)[C@H](OC(C)=O)[C@H]2OC(C)=O)[C@@H](OC(C)=O)[C@@H]1OC(C)=O,,inactive: -23.5%
CN=C(N)NC(=O)Nc1c(C)cccc1C,,inactive: -2.84%

SMILES,Potency,"activity change, negative = cytotoxic"
O=C(O)C1CCCN(CCC=C(c2ccccc2)c2ccccc2)C1 (stereo not given),"inconclusive [cytotoxic, partial curve]",
CN(C)CCOC(=O)C(c1ccccc1)C1(O)CCCC1 (stereo not given),,inactive: -3.47%
CCCCCCOC(=O)NC(=N)c1ccc(NCc2nc3cc(C(=O)N(CCC(=O)OCC)c4ccccn4)ccc3n2C)cc1,"inconclusive [cytotoxic, single point]",
CCNC(=O)NCCCOc1cccc(CN2CCCCC2)c1,,inactive: 3.03%
Cc1[nH]cnc1-c1ccc(Cl)cc1,"inconclusive [cytotoxic, partial curve, poor fit]",
Cc1cc(C)nc(NS(=O)(=O)c2ccc(N)cc2)n1,,inactive: 11.2%
CCCCCCn1c(=O)c2c(ncn2C)n(C)c1=O,,inactive: -12.5%
O=C(CS(=O)Cc1ccco1)NC/C=C\COc1cc(CN2CCCCC2)ccn1 (stereo not given),,inactive: 5.16%
CCOC(=O)n1ccn(C)c1=S,,inactive: -26.2%
Cc1ncc(COP(=O)(O)O)c(C=O)c1O,,inactive: -22.7%
COCCc1ccccn1,,inactive: 7.44%
CC(C)Cc1ccc(CC(=O)O)cc1,"inconclusive [cytotoxic, full curve, poor fit]",
O=C(O)/C=C\C(=O)O,,inactive: -13.3%
Cc1onc(-c2ccccc2Cl)c1C(=O)N[C@@H]1C(=O)N2[C@@H]1SC(C)(C)[C@@H]2C(=O)O,inactive,
OC[C@H]1O[C@@H](O[C@@H]2[C@@H](CO)O[C@](O)(CO)[C@H]2O)[C@H](O)[C@@H](O)[C@H]1O,,inactive: 26.7%
Nc1ccn(C[C@@H](CO)OCP(=O)(O)O)c(=O)n1,,inactive: 13.7% [at 20 µM]
Cc1cccc(C)c1NC(=O)c1cc(S(N)(=O)=O)c(Cl)cc1O,,inactive: 4.99%
CCN[C@H]1CN(CCCOC)S(=O)(=O)c2sc(S(N)(=O)=O)cc21,,inactive: 7.67%
[O-][n+]1cccc(CO)c1,,inactive: -4.52%
CC1CCc2cc(F)cc3c(=O)c(C(=O)O)cn1c23 (stereo not given),,inactive: 7.93%
